The values that follow come from PubChem BioAssay AID1508623 (National Center for Advancing Translational Sciences (NCATS), 2021).

In all, about 48,000 compounds went through this assay and about 450 (0.94%) were called active. About 19% were inconclusive and are not listed. Calls follow the shape of the dose curve; as a rule, active = well fitted inhibition curve with a large enough effect; inconclusive = small, poorly fitted or top-dose-only effect; inactive = no such curve, though single readings can be large or run the other way. Some of the results follow.

A short description of this assay: Primary qHTS for Identification of Small Molecule Inhibitors of Huntingtin Promoter Activity. Also: nearly all actives have a fitted effect of over 50% in size. The following applies: HEK293 HTT promoter firefly luciferase reporter (activity 0% = vehicle and -100% = no light), 24 h; series mostly up to 57.5 µM; activity change, negative = inhibition: at the top concentration. An outline of the steps: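 HEK293 cells carrying firefly luciferase reporters were seeded at 2,500 per well in Opti-MEM and cultured for 24 h. They were then treated with compounds at up to 57.5 uM final for 24 h at 37 degrees C before Dual-Glo luminescence readout.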
(In qHTS, concentration-response curves come from the screen itself.)
Take `Cc1cccc(Cn2c(=O)n(-c3ccccc3C)c(=O)c3c2c2cc(C)ccc2n3C)c1`: the “activity change, negative = inhibition” value is inactive: -6.48%.

`CCC(=O)N1c2ccccc2CC1C(=O)NCc1cc(Br)ccc1OC` (configuration not stated): the “activity change, negative = inhibition” value was inactive: 0.208%.

Turning to `Cc1ccc2oc3c(c(=O)c2c1)C(c1ccc(O)cc1)N(c1nc(C)c(C)s1)C3=O` (configuration not stated), the “activity change, negative = inhibition” value was inactive: -2.73%.

`CCC(=O)Nc1nnc(S(=O)(=O)N2c3ccccc3CC2C)s1` (configuration not stated): the “activity change, negative = inhibition” value is inactive: -11.6%.

In the case of `CC(C)Cc1ccc(C(C)C(=O)O)cc1` (configuration not stated), the activity change, negative = inhibition entry is “inactive”.

`Cc1ccc(CNc2nc3ccccc3n3cnnc23)cc1`: the “activity change, negative = inhibition” value is inactive: -4.26%.

Take `COc1ccc(NC(=O)c2cnc(N3CCCC3)nc2)cc1OC`: the “activity change, negative = inhibition” value was inactive: -13.1%.

Consider `CCCC1=Nc2cc(C(=O)N3CCC(C(=O)OCC)CC3)ccc2Sc2ccccc21`, for which the “activity change, negative = inhibition” value was inactive: -18.3%.

As to `Cc1cc(C)c2oc(-c3cccc(NC(=O)c4ccc(-c5cccc([N+](=O)[O-])c5)o4)c3)nc2c1`, the “activity change, negative = inhibition” value is inactive: 6.24%.

With `Cc1cccc(NC(=O)C2CCCN2S(=O)(=O)c2ccc3c(c2)n(C)c(=O)c(=O)n3C)c1` (configuration not stated), the “activity change, negative = inhibition” value is inactive: -1.48%.

Turning to `O=C(NCc1cccc(F)c1)c1ccccc1NC(=O)c1nsc2ccccc12`, the “activity change, negative = inhibition” value is inactive: -1.64%.

`O=C(CCSCc1cccc(Cl)c1)NCCc1ccc(Cl)cc1`: the “activity change, negative = inhibition” value is inactive: -12%.

Consider `CCc1ccc(C(=O)C(C)CN2CCCCC2)cc1` (configuration not stated), for which the “activity change, negative = inhibition” value is inactive: 0.0991%.

Consider `COc1ccc(-n2c(SCC(=O)NCc3ccc(F)cc3)nc3c([nH]c4ccccc43)c2=O)cc1`, for which the “activity change, negative = inhibition” value was inactive: -23%.

On to `COc1ccccc1CNC(=O)CCCCn1c(=O)c2ccccc2n(Cc2ccccc2F)c1=O`, for which the “activity change, negative = inhibition” value was inactive: -2.77%.

Take `CC(=O)Nc1cccc(NC(=O)Cn2cnc3c(oc4ccccc43)c2=O)c1`: the “activity change, negative = inhibition” value is inactive: 1.69%.

For the molecule `Cn1c(=O)n(C)c2cc(N3CCOCC3)c(NS(=O)(=O)c3cccc(C#N)c3)cc21`, the “activity change, negative = inhibition” value was inactive: 13.8%.

`Cc1nn2cc(-c3ccc(OC(C)C)cc3)nc2s1`: the “activity change, negative = inhibition” value is inactive: -38.9%.

With `Cc1ccc(CCNC(=O)C2CCN(S(=O)(=O)c3ccc4c(ccn4C)c3)CC2)cc1`, the “activity change, negative = inhibition” value is inactive: -10.6%.

As to `Cc1ccc(-c2nc3c4c(-c5ccccc5)c(-c5ccccc5)oc4ncn3n2)cc1`, the “activity change, negative = inhibition” value is inactive: -6.77%.

As to `Cc1ccc(CNC(=O)CSc2nc3ccccc3nc2Cc2ccc(C)cc2)cc1`, the “activity change, negative = inhibition” value is inactive: 0.918%.

Turning to `CCOc1ccc(NC(=O)c2c(C)oc3nc(C)nc(N4CCOCC4)c23)cc1`, the “activity change, negative = inhibition” value was inactive: 4.82%.

As to `Cc1cccc(-c2nc3c(cnn3-c3ccccc3)c(=O)n2-c2ccc(Cl)cc2)c1`, the activity change, negative = inhibition was inactive: -9.03% [at 11.5 µM].

Take `COc1ccc(NC(=O)CSc2nc(C)cc(C)c2C(=O)Nc2ccccc2OC)cc1`: the “activity change, negative = inhibition” value is inactive: -21.5%.

With `COc1ccc(CNC(=O)Cn2nnc(-c3ccc(C(F)(F)F)cc3)n2)cc1`, the “activity change, negative = inhibition” value is inactive: 17.6%.

For the molecule `O=c1cc(-c2ccccc2)n2c(SCc3ccc(Cl)cc3)nnc2[nH]1`, the “activity change, negative = inhibition” value is inactive: -13.4%.

Take `COc1ccc(-n2c3c(cc(-c4nc(-c5ccc(C)cc5)cs4)c2=O)C(=O)CC(C)(C)C3)cc1`: the “activity change, negative = inhibition” value is inactive: 1.07%.

As to `CC(C)C(=O)NCC(c1ccc2c(c1)OCO2)N1CCN(c2ccccc2F)CC1` (configuration not stated), the “activity change, negative = inhibition” value was inactive: -19.3%.

Turning to `COc1ccccc1C(=O)Nc1ccc2oc(-c3cccc(Cl)c3Cl)nc2c1`, the “activity change, negative = inhibition” value was inactive: 5.51%.

For the molecule `Cc1sc2c(c1C)c(=O)n(-c1ccc(Cl)cc1)c(=O)n2Cc1cc(=O)n2ccccc2n1`, the “activity change, negative = inhibition” value is inactive: -11.9%.

Take `O=c1[nH]cnc2c1ncn2[C@@H]1O[C@H](CO)[C@@H](O)[C@H]1O`: the “activity change, negative = inhibition” value is inactive: 3.57%.

With `CC1CCCN(C(=O)c2cc3c(=O)n(C)c4ccccc4c3s2)C1` (configuration not stated), the “activity change, negative = inhibition” value was inactive: 4.72%.

With `COc1ccc(C2C(C(N)=O)=C(C)Nc3nc(SCc4ccccc4Cl)nn32)cc1OC` (configuration not stated), the “activity change, negative = inhibition” value was inactive: -9.82%.

Consider `CCOc1ccc(C(=O)NCc2nc3cccnc3n2Cc2ccc(F)cc2)cc1OCC`, for which the “activity change, negative = inhibition” value is inactive: -6.55%.

As for `CCOC(=O)c1ccccc1NC(=O)CSc1nc2ccncc2[nH]1`, the “activity change, negative = inhibition” value is inactive: -24.4%.

In the case of `CCOC(=O)CNc1nc(Oc2ccc(=O)n(C)n2)nc(N(CC)CC)n1`, the “activity change, negative = inhibition” value is inactive: -27.2%.

Turning to `CCC(=O)Nc1cc(-c2cccc(C)c2)nn1-c1ccccc1`, the “activity change, negative = inhibition” value is inactive: -12.4%.

Take `Cc1cccc(-c2nc(SCC(=O)N3CCc4ccccc43)c3c(=O)n(C)c(=O)n(C)c3n2)c1`: the “activity change, negative = inhibition” value was inactive: -5.71%.

Take `COc1ccc(N2CCN(Cc3nc4c(c(=O)[nH]c(=O)n4C)n3Cc3ccc(Cl)cc3)CC2)cc1`: the “activity change, negative = inhibition” value is inactive: -18.1%.

`COc1cccc2c1ncc1c(-c3ccc(C)cc3)nn(-c3cccc([N+](=O)[O-])c3)c12`: the “activity change, negative = inhibition” value is inactive: -21.6%.

In the case of `CCOc1ccc(-n2c(SCC(=O)N3CCc4ccccc43)nc3c([nH]c4ccccc43)c2=O)cc1`, the “activity change, negative = inhibition” value is inactive: -5.62%.

With `COc1ccc(NC(=O)Cn2c(=O)c(-c3cc(C)ccc3NC(C)=O)nc3ccccc32)c(OC)c1`, the “activity change, negative = inhibition” value was inactive: 1.94%.

`Cc1cc(C)cc(NC(=O)C(=O)NCC(c2ccc3c(c2)OCO3)N2CCN(C)CC2)c1` (configuration not stated): the “activity change, negative = inhibition” value is inactive: 32.9%.

With `O=C(COc1ccccc1)NCc1ccc2c(c1)CCN2C(=O)c1ccc(Cl)cc1`, the “activity change, negative = inhibition” value is inactive: -15.2%.

Turning to `COc1ccc(NC(=O)N(CCC(C)C)C(C)c2cccs2)c(OC)c1` (configuration not stated), the “activity change, negative = inhibition” value is inactive: -23.8%.

Take `Cc1cc(=O)[nH]c2nnc(SCC(=O)Nc3ccc(OC(F)(F)F)cc3)n12`: the “activity change, negative = inhibition” value is inactive: -16.7%.

For the molecule `COc1ccc(OC)c(NC(=O)c2cc(-c3ccc(Cl)s3)nc3ccccc23)c1`, the “activity change, negative = inhibition” value is inactive: -0.493%.

Turning to `NCc1nc2cccnc2n1Cc1ccccc1Cl`, the “activity change, negative = inhibition” value is inactive: -7.66%.

Regarding `COc1ccccc1CNC(=O)CCc1c(C)nn(-c2ccc(N3CCOCC3)nn2)c1C`, the “activity change, negative = inhibition” value was inactive: -15.9%.

Regarding `O=C(NCc1ccco1)c1ccc2c(c1)N(Cc1ccccc1)C(=O)c1ccccc1S2(=O)=O`, the “activity change, negative = inhibition” value is inactive: -19.7%.

For `COCCNc1ncnc2c1c(-c1ccccc1)cn2-c1ccc(C)c(Cl)c1`, the “activity change, negative = inhibition” value was inactive: -28.3%.

Take `COc1ccc(-n2ncc3c(NC(C)(C)CO)ncnc32)cc1`: the “activity change, negative = inhibition” value was inactive: -22.2%.

Turning to `CCOc1ccc(NC(=O)Cn2c3ncccc3c(=O)n2-c2ccc(CC)cc2)cc1`, the “activity change, negative = inhibition” value was inactive: -8.91%.

In the case of `Cc1ccc2onc(CC(=O)N3CCN(c4ccc(F)cc4)CC3)c2c1`, the “activity change, negative = inhibition” value was inactive: -14.1%.

In the case of `CC(C)CC(=O)N1c2nc(C(C)C)nn2C2(CCCCC2)[C@@H]2CCCC[C@@H]21`, the “activity change, negative = inhibition” value is inactive: -8.25%.

`CN(CCCNC(=O)c1cc2c(Cl)nc3ccccc3c2s1)Cc1ccccc1`: the “activity change, negative = inhibition” value was inactive: -9.1%.

`COC(=O)c1c(NC(=O)c2cc3ccccc3c(=O)o2)sc2c1CCCC2`: the “activity change, negative = inhibition” value is inactive: 0.894%.

Regarding `CCN(CC)CCNC(=O)c1c(C)oc2ncnc(N3CCOCC3)c12`, the “activity change, negative = inhibition” value is inactive: -1.8%.

Take `Cc1cccc(C)c1OCC(=O)Nc1ncn[nH]1`: the activity change, negative = inhibition is inactive: -18.1% [at 11.5 µM].

In the case of `CCOc1ccc(CCNC(=O)c2cnc3sc(N(CC)CC)nn3c2=O)cc1OCC`, the “activity change, negative = inhibition” value was inactive: -3.86%.

Consider `Cc1cc(C)c(NC(=O)Cn2cc(S(=O)(=O)Cc3ccccc3F)c3ccccc32)c(C)c1`, for which the “activity change, negative = inhibition” value was inactive: -12.8%.

Turning to `COc1ccccc1NC(=O)N(Cc1nnc2n1CCCCC2)c1ccc(F)cc1`, the “activity change, negative = inhibition” value was inactive: -10.1%.
